Where “and” joins values, the source holds several entries; their conditions need not be identical. Identical values can stand only once. The shares of active, inactive and inconclusive entries below differ from those in the screen. Potencies of inconclusive entries are doubtful fits and often do not repeat. Some structures have more than one record in an assay (separate samples or runs), and their calls can disagree. Calls of active or inactive are those of the source. Unless noted, calls come from the whole dose curve; as a rule, active = well fitted curve in the direction sought with a large enough effect in the repeat runs; inconclusive = weak or mixed curves; inactive = no such curve, though single readings can be large; an effect the other way counts as inactive or inconclusive.
Test system: not listed separately
Assay: Caspase-3/7 induction in CHO-K1 cells by small molecules, qHTS cell viability counter screen (AID 1346979); note: nearly all actives have a fitted effect of over 35% in size; for activity change, negative = cytotoxicity: % is set by controls: 0 for no effect and ±100 for the full control effect
Conditions: CellTiter-Fluor fluorescence, 17 h; series mostly up to 92.4 µM; activity change, negative = cytotoxicity: at the top concentration
Outline: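 To flag cytotoxic compounds, treated CHO-K1 wild-type cells were given CellTiter-Fluor at 16hr and read fluorescently after 1hr at 37C; the caspase-3/7 luminescence was measured in these same wells.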
Potency is the fitted concentration of half-maximal effect; tags give direction and shape of the fitted curve.

Structure (SMILES)	Potency	activity change, negative = cytotoxicity
C=CC(=O)OCCCCO	active: 54.5 µM	
CC(C)(C)C(O)/C(=C\c1ccc(Cl)cc1Cl)n1cncn1 (stereo not given)	active: 37.1 µM	
CS/C(C)=N/OC(=O)N(C)SN(C)C(=O)O/N=C(\C)SC	inconclusive: 68.6 µM [cytotoxic, single point]	
Cc1c(Cl)c(=O)oc2cc(OP(=O)(OCCCl)OCCCl)ccc12	inconclusive: 18.8 µM [rising, partial curve]	
C[Si](Cn1cncn1)(c1ccc(F)cc1)c1ccc(F)cc1	inconclusive: 70.8 µM [cytotoxic] and inconclusive: 68.6 µM [cytotoxic, single point]	
O=C(O)C(Cl)(Cl)Cl	inactive	
CC(C)(C)c1ccccc1O	inconclusive: 69.4 µM [cytotoxic, single point]	
Cc1ccc(Cl)c(O)c1		inactive: 5.17% [at 42.5 µM]
Oc1c(Br)c(Br)c(Br)c(Br)c1Br	inconclusive: 69 µM [cytotoxic]	
Oc1cc(Cl)c(Cl)c(Cl)c1Cl	inconclusive: 67 µM [cytotoxic, single point]	
Oc1c(I)cc(I)cc1I	inconclusive: 68.6 µM [cytotoxic, single point]	
C[C@]12C/C(=C/O)C(=O)C[C@@H]1CC[C@@H]1[C@@H]2CC[C@@]2(C)[C@H]1CC[C@]2(C)O	inconclusive: 33.5 µM [cytotoxic, single point]	
CC(C)=CC1C(C(=O)OCc2cccc(Oc3ccccc3)c2)C1(C)C (stereo not given)	inactive	
Nc1ccc(Cl)cc1	inconclusive: 77 µM [cytotoxic, single point]	

Test system: not listed separately
Assay: Caspase-3/7 induction in HepG2 cells by small molecules, qHTS cell viability counter screen (AID 1346981); note: nearly all actives have a fitted effect of over 30% in size; for activity change, negative = cytotoxicity: % is set by controls: 0 for no effect and ±100 for the full control effect
Conditions: CellTiter-Fluor fluorescence, 17 h; series mostly up to 92.4 µM; activity change, negative = cytotoxicity: at the top concentration
Outline: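 HepG2, WT, 2,000 cells/well; 5 hr pre-incubation 37 C/5% CO2; compound pin-transferred from DMSO; 16 hr exposure; CellTiter-Fluor, 1 hr; fluorescence read.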

Structure (SMILES)	Potency	activity change, negative = cytotoxicity
C=CC(=O)OCCCCO	inconclusive: 27.3 µM [cytotoxic, single point]	
CCSCc1ccccc1OC(=O)NC		inactive: 1.92%
CC(C)(C)C(O)/C(=C\c1ccc(Cl)cc1Cl)n1cncn1 (stereo not given)	active: 83 µM	
Cc1ncc(CNC(=O)N(CCCl)N=O)c(N)n1		inactive: 0.321% [at 42.5 µM]
C[Si](Cn1cncn1)(c1ccc(F)cc1)c1ccc(F)cc1	inconclusive: 70.8 µM [cytotoxic, single point] and inconclusive: 77 µM [cytotoxic]	
Nc1n[nH]c(N)n1		inactive: -0.305%
Cc1cc(C(C)(C)c2ccc(O)c(C)c2)ccc1O	active: 46.2 µM	
Oc1c(Br)c(Br)c(Br)c(Br)c1Br	inconclusive: 77.4 µM [cytotoxic, single point]	
Oc1cc(Cl)c(Cl)c(Cl)c1Cl	inconclusive: 42.3 µM [cytotoxic, partial curve]	
Nc1ccc(Cl)cc1C(=O)c1ccccc1	inconclusive: 68.6 µM [cytotoxic, single point]	
COC(=O)C(C)N(C(=O)Cc1ccccc1)c1c(C)cccc1C (stereo not given)		inactive: -4.72%
O=c1oc2ccccc2c(O)c1Cc1c(O)c2ccccc2oc1=O		inactive: 6.7% [at 42.5 µM]
C[C@]12C/C(=C/O)C(=O)C[C@@H]1CC[C@@H]1[C@@H]2CC[C@@]2(C)[C@H]1CC[C@]2(C)O	inconclusive: 69.2 µM [cytotoxic, single point]	
CSC1=N[C@@](C)(c2ccccc2)C(=O)N1Nc1ccccc1	inconclusive: 68.6 µM [cytotoxic, single point]	

Target: Nuclear receptor subfamily 1 group I member 2 (Homo sapiens) (UniProt O75469)
Sequence of UniProt O75469 (O75469 whole entry, looked up): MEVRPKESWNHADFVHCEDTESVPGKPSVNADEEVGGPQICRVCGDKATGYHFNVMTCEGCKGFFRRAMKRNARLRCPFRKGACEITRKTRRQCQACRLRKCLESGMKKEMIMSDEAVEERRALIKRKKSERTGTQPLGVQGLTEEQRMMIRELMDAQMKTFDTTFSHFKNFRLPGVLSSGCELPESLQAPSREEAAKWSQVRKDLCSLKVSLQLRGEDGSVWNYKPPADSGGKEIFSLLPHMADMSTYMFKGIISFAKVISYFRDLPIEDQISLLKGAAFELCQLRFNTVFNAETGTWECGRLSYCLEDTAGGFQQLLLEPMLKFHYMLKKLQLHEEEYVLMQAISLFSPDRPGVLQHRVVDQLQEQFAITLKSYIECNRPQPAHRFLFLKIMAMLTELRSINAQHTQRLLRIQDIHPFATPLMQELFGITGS
Assay: Human pregnane X receptor (PXR) small molecule agonists, qHTS assay (AID 1346982); note: nearly all actives have a fitted effect of over 35% in size; for activation: % is set by controls: 0 for no effect and ±100 for the full control effect
Conditions: PXR-Luc HepG2, CYP3A4 luciferase reporter, 24 h; series mostly up to 92.4 µM; activation: at the top concentration
Outline: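 Luciferase signal from ONE-Glo (30 min, room temperature) measured activation of hPXR-driven CYP3A4 reporter expression in PXR-Luc HepG2 cells treated with compounds for 24 hr at 37 C.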

Structure (SMILES)	Potency
CNC(=O)Oc1cccc2c1OC(C)(C)C2	inconclusive: 70.1 µM [activator, partial curve] and inactive
CS/C(C)=N/OC(=O)N(C)SN(C)C(=O)O/N=C(\C)SC	inconclusive: 68.6 µM [activator, single point]
Cc1c(Cl)c(=O)oc2cc(OP(=O)(OCCCl)OCCCl)ccc12	active: 11.9 µM
O=C(O)C(Cl)(Cl)Cl	inconclusive: 59.6 µM [activator, partial curve, poor fit]
Oc1c(Br)c(Br)c(Br)c(Br)c1Br	active: 61.5 µM
Oc1cc(Cl)c(Cl)c(Cl)c1Cl	active: 33.6 µM
Oc1c(I)cc(I)cc1I	inconclusive: 68.6 µM [activator, single point]
CSC1=N[C@@](C)(c2ccccc2)C(=O)N1Nc1ccccc1	inconclusive: 38.6 µM [activator, partial curve]
S=C=Nc1ccccc1	active: 63.1 µM
Nc1ccc(Cl)cc1	inconclusive: 61.1 µM [activator]

Target: Acetylcholinesterase (Homo sapiens) (UniProt P22303)
Sequence of UniProt P22303 (P22303 whole entry, looked up): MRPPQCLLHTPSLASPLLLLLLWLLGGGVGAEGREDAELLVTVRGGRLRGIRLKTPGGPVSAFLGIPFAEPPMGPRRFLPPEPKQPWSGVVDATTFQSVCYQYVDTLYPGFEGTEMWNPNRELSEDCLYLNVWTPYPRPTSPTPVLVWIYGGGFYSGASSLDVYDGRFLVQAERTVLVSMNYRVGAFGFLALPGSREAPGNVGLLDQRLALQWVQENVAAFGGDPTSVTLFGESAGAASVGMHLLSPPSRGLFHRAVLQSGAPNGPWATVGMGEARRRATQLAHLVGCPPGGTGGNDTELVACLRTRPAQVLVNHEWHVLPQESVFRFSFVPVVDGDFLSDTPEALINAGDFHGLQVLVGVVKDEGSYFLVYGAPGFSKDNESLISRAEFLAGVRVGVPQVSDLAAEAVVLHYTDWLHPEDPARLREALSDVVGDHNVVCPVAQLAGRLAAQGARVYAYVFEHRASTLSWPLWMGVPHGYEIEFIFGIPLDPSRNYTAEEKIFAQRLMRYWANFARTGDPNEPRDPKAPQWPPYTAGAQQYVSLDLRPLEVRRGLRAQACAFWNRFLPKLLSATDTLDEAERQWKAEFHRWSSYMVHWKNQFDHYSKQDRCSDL
Assay: Acetylcholinesterase (AChE) small molecule antagonists: colormetric cell-based qHTS assay (AID 1347395; calls by dose curve; note: nearly all actives have a fitted effect of over 30% in size; for activity, negative = inhibition: % is set by controls: 0 for no effect and ±100 for the full control effect)
Conditions: SH-SY5Y cells AChE activity, colorimetric (Ellman); series mostly up to 115 µM; activity, negative = inhibition: at the top concentration
Outline: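 Neuroblastoma line SH-SY5Y supplied the enzyme; cells were preincubated with compound for 30 min at 37 C and 5% CO2. Acetylthiocholine with DTNB was then added for 90 min at 37 C, and thiocholine was measured by colour.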

Structure (SMILES)	Potency	activity, negative = inhibition
CC(C)(C)C(O)/C(=C\c1ccc(Cl)cc1Cl)n1cncn1 (stereo not given)	inconclusive: 85.9 µM [inhibitor, partial curve]	
CS/C(C)=N/OC(=O)N(C)SN(C)C(=O)O/N=C(\C)SC	active: 1.42 µM	
O=C(NC(=O)c1c(F)cccc1F)Nc1cc(Cl)c(Oc2ncc(C(F)(F)F)cc2Cl)c(Cl)c1		inactive: -3.84%
Nc1ccc(Cl)cc1	inconclusive: 91 µM [inhibitor, single point]	

Target: Acetylcholinesterase (Homo sapiens) (UniProt P22303)
Assay: Acetylcholinesterase (AChE) small molecule antagonists: fluorescence cell-based qHTS assay (AID 1347398; calls by dose curve; note: nearly all actives have a fitted effect of over 50% in size)
Conditions: SH-SY5Y cells; Potency: AChE activity; series mostly up to 115 µM; activity change, negative = inhibition: at the top concentration
Outline: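 SH-SY5Y cells (2000/well), attached overnight, incubated with compound 30 min at 37 C. Acetylthiocholine plus Thiolite Green then added for 40 min at room temperature. Thiocholine fluorescence (Ex/Em 490/520 nm) reports cellular AChE activity.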

Structure (SMILES)	Potency
CC(C)(C)C(O)/C(=C\c1ccc(Cl)cc1Cl)n1cncn1 (stereo not given)	inconclusive: 60.8 µM [inhibitor, partial curve, poor fit]
C=CCN=C=S	inconclusive: 36.4 µM [inhibitor, partial curve]
C=CC[C@]1(O)CC[C@H]2[C@@H]3CCC4=CC(=O)CCC4=C3C=C[C@@]21C	active: 6.92 µM
